Reference: PMC4336329 (PLoS ONE, 2015)
In all, about 310,000 compounds went through this assay and about 14,000 (4.5%) showed an effect of 50% or more. The effect is printed as a negative number. This is one part of the list.

biological target: human ether-à-go-go-related gene (hERG) potassium channel (human, UniProt Q12809); experiment: primary screen, population patch clamp on CHO cells stably expressing hERG
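Further: peak tail current of the secondary pulse compared with the same well before compound.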

Chain of human ether-à-go-go-related gene (hERG) potassium channel (Q12809 whole entry, looked up): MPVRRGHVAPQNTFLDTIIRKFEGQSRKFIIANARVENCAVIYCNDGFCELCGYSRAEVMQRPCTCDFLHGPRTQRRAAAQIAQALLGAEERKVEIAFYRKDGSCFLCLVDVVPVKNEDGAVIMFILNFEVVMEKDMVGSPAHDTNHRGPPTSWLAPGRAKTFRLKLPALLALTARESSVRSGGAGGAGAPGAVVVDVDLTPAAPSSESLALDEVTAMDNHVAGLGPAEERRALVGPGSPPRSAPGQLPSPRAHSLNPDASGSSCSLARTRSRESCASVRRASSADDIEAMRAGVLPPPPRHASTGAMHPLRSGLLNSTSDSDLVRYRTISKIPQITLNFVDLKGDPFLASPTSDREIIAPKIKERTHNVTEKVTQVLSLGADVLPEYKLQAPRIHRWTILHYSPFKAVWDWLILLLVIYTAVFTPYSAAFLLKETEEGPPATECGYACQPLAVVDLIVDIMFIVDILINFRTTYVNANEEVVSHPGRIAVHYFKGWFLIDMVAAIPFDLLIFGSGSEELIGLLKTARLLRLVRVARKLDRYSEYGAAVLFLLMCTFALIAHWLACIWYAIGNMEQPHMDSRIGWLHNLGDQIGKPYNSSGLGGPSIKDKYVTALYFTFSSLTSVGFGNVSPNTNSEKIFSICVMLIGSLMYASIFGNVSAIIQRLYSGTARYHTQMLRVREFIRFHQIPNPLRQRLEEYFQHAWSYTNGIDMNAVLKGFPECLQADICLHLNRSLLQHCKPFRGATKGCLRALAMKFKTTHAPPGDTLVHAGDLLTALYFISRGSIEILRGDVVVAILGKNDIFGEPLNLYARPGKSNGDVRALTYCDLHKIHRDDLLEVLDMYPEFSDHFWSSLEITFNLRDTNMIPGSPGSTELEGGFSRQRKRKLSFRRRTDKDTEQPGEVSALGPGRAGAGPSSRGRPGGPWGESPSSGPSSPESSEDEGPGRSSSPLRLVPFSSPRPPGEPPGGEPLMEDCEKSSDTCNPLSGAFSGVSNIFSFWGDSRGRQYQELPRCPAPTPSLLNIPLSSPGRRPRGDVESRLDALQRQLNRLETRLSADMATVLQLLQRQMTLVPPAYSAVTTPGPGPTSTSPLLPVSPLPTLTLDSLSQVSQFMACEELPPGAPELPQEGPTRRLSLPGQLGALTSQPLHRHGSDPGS

Compound	hERG current change (%, negative = inhibition) at 10uM [%]
CCOC(=O)C1SC2(C(F)(F)F)CC1(O)c1c(C)cc(C)nc1O2 (stereo not drawn)	5.49
Cc1ccc(C)n1-c1ccc(NC(=O)c2ccccc2)cc1	-2.45
CC(C)O.O=C(O)c1cc(S(=O)(=O)Nc2ccc(N3CCCCC3)cc2)ccc1Cl	12.3
CCCn1nc(C(=O)Nc2nc(-c3ccccn3)cs2)c2ccccc2c1=O	0.993
Cc1ccc(-c2nc(N)sc2CC(=O)OCC(=O)NCCC(C)C)cc1	-11.9
COc1ccc(N2CCN(c3ccc(S(=O)(=O)N(C(C)C)C(C)C)cn3)CC2)cc1	25.5
COc1ccccc1CNC(=O)c1cccc2c1C(=O)N(Cc1cccnc1)C2	-70.1
COc1ccccc1/C=C(/C#N)C(=O)O	18.5
Cc1cc(C)cc(C(=O)NC(CC(N)=O)c2ccc(NCC3CC3)c([N+](=O)[O-])c2)c1 (stereo not drawn)	-30.4
Cc1sc2ncnc(SCC(=O)Nc3ncccc3O)c2c1C	-2.81
CC(C)c1ccccc1OCCNC(=O)c1cncc(Br)c1	-60.6
CC(=O)Nc1cc(NC(C)=O)ncn1	11.8
CC(=O)Nc1ccccc1-c1nn[nH]n1	0.73
CC(C)NCC(O)c1ccc2ccccc2c1.Cl (stereo not drawn)	2.06
CCOC(=O)C1=C(N)Oc2c(c(=O)oc3ccccc23)C12C(=O)N(C)c1ccccc12 (stereo not drawn)	-4.96
Cc1cc(C)c2c(=O)[nH]c(SCC(=O)NCc3ccccc3)nc2n1	2.76
CCOC(=O)C1CCCN(CC(O)COc2ccccc2C(C)=O)C1.Cl (stereo not drawn)	-46.2
O=C(O)c1ncn(Cc2ccccc2)c1C(=O)O	14.3
Oc1cccc(NC(=S)N=Nc2c(O)[nH]c3ccc(Br)cc23)c1	8.73
COc1ccc(-n2nc(C)c3sc(C)nc3c2=O)cc1	8.78
c1cncc(-c2noc(CC3CCCCC3)n2)c1	-9.93

Compound	hERG current change (%, negative = inhibition) at 10uM [%]
Cc1ccc(C(=O)O)cc1-c1ccc(/C=C2\SC(=O)N(CC(=O)Nc3ccc4c(c3)OCO4)C2=O)o1	-0.866
Cc1ccc2[nH]c(=O)c(CN3CCCCC3)c(-c3ccccc3)c2c1	-53.6
NC(=O)C1CCN(C(=O)C2CC(=O)N(c3ccc(F)cc3)C2)CC1 (stereo not drawn)	13.7
Cc1cc(C(=O)NP(=O)(N2CCOCC2)N2CCOCC2)c(C)n1-c1ccc(Br)cc1	7.94
CN(Cc1ccon1)Cc1cn[nH]c1-c1ccc(-c2ccccc2)cc1	-10.4
Cc1ccccc1NC(=S)N(Cc1ccco1)C(C)c1cccs1 (stereo not drawn)	-17.6
Cc1cc(C)nc(N(C#N)Cc2ccccc2Cl)n1	4.48
CN(Cc1c(F)cccc1Cl)C(=O)CCc1c[nH]c2ccccc12	-4.53
O=C1CC(c2ccccc2)n2nc(NS(=O)(=O)c3ccccc3)nc2N1 (stereo not drawn)	-8.25
Cc1ccc(NC(=O)CNC(=O)OCc2ccccc2)cc1C	5.75
COc1ccc(CC(=O)Nc2cccc(C(C)=O)c2)cc1S(=O)(=O)N1CCOCC1	11.4
CSCC(=O)N1CCC(n2nccc2NC(=O)CCCc2ccccc2)CC1	-17.6
CC1(C)Cc2ccccc2C(=NC(Cc2ccccc2)C(=O)O)N1 (stereo not drawn)	10
CCCn1nc(NS(=O)(=O)c2ccccc2[N+](=O)[O-])c2cc3ccccc3nc21	-26.5
CCC1(c2ccccc2)NC(=S)N(c2cccc(C)c2C)N1 (stereo not drawn)	10.5
Cn1cc(C=C2C(=O)OC3(CCCCC3)OC2=O)c2ccccc21	9.19
C=CCNC(=O)c1c(CSc2ccc(Cl)cc2)noc1C(=O)NCc1ccccc1	1.59
O=S(=O)(c1ccc(Cl)cc1)N1CCCC(C(F)(F)F)C1 (stereo not drawn)	13.1
CCOc1ccc(NC(=O)c2ccc(Br)o2)c([N+](=O)[O-])c1	5.5
CC1CCCC(NC(=O)COC(=O)CN2C(=O)C3CCCCC3C2=O)C1C (stereo not drawn)	10.3
COCCN(C(=O)Cn1c(C(F)(F)F)nc2ccccc21)c1c(N)n(Cc2ccccc2)c(=O)[nH]c1=O	7.84

Compound	hERG current change (%, negative = inhibition) at 10uM [%]
Nn1c(Cc2cccc3ccccc23)nnc1SCCOc1ccc(F)cc1	-17.5
O=C(c1cccs1)N1CCN(c2cc(Cl)ccc2Cl)CC1	-33.8
CCOc1ccccc1-c1cc(C(=O)Nc2ccc(C(=O)O)cc2)c2ccccc2n1	28.7
Nc1nc(SCC(=O)Nc2ccccc2)[nH]c(=O)c1NC(=O)c1cccs1	3
CCOC(=O)c1cnc2ccc(C)cn2c1=O	-9.45
O=C(Nc1ccc(F)cc1F)Nc1sccc1-c1nc2ccccc2s1	15.1
COc1ccc(C(=O)COC(=O)CCN2C(=O)C3C4C=CC(C5CC45)C3C2=O)cc1 (stereo not drawn)	-11.1
Cc1cc(COC(=O)C2N3C(=O)[C@@H](NC(=O)COc4ccccc4)[C@H]3SC2(C)C)on1 (stereo partly drawn)	-56.2
N/C(=N\c1nc2c(c(=O)[nH]1)CCC2)Nc1cccc(Cl)c1	-2.92
CC(=O)Nc1cc(NC(=O)CCCC(=O)O)ccc1Cl	3.55
COc1cc(C)c(NC(=S)Nc2ccc(C)c(Cl)c2)cc1OC	-2.77
O=C(/C=C/c1ccc(Cl)cc1Cl)N1CCc2ccccc21	-1.39
CN(C)c1ccc(/C=C(/C#N)C(=O)NCc2ccccc2)o1	11.5
COC(CN(C)S(=O)(=O)c1cc2c3c(c1)CCN3C(=O)CC2)OC	21.7
COc1ccc(CN2CCNC(=O)C2CC(=O)NCCc2nc(C)c3c(n2)CCC3)cc1C (stereo not drawn)	32.8
O=[N+]([O-])c1cccc(-c2nc(-c3ccccc3)c(-c3cccs3)[nH]2)c1	8.11
O=C(CCc1nnc(C2CCCCC2)o1)N1CCN(Cc2ccccc2)CC1	5.53
Cn1nc(C(F)(F)F)c(CNC(=O)C(C)(C)CCl)c1N1CCOCC1	4.09
CC(C)CN(C(=O)COC(=O)c1cccnc1Cl)c1c(N)n(Cc2ccccc2)c(=O)[nH]c1=O	4.02
O=C(CSc1nc2ccc(Nc3nc(N4CCOCC4)nc(N4CCOCC4)n3)cc2s1)N1CCOCC1	-16.2
COc1ccc(Cl)c2sc(N(CCN(C)C)C(=O)c3ccc4c(c3)OCCO4)nc12.Cl	-29.2

Compound	hERG current change (%, negative = inhibition) at 10uM [%]
COc1cc(NC(=O)C/C(C)=N/NC(=O)C(OC)c2ccccc2)c(OC)cc1Cl (stereo not drawn)	-9.34
O=C(O)c1ccc(COc2cccc(CO)c2)cc1	11.3
CCOc1cc(/C=C2/C(=N)N3C(=NC2=O)SN=C3S(C)(=O)=O)ccc1OS(=O)(=O)c1ccccc1	20.7
COc1cccc(-c2cc(C(=O)Nc3cccc(O)c3)no2)c1	10.3
CCOC(=O)c1c(-c2ccco2)csc1NC(=O)COC(=O)c1cnccn1	8.4
C=CCc1cc(/C=N/n2cnnc2)cc(OCC)c1O	6.82
O=C(CN1CCC(NC(=O)c2ccccc2Cl)CC1)NCc1ccccc1	-20.4
CCn1cc(C(=O)O)c(=O)c2cc(F)c(N3CCN(C(=S)NC(=O)c4c(OC)cccc4OC)CC3)cc21	12
NNC(=O)/C(=C/c1cccs1)NC(=O)c1ccccc1Cl	2.33
Cc1cccc(C(=O)NCc2nnc(SC(C)C(=O)Nc3nnc(C)s3)n2C)c1 (stereo not drawn)	19.7
CCN1CCN(CC(=O)Nc2nc3ccc(OC)cc3s2)CC1.O=C(O)C(=O)O	-30.8
O=C(O)[C@H](Cc1ccccc1)N1C(=O)c2ccncc2C1=O	19.3
O=C1OC(Nc2nccs2)c2ccccc21 (stereo not drawn)	13.3
CCOc1cc(NS(=O)(=O)c2ccc(NC(C)=O)cc2)c(OCC)cc1NC(=O)c1cccs1	6.31
CN(Cc1ccc(F)cc1)C(=O)C(c1ccccc1)c1ccccc1	-6.18
COc1cc(C(=O)Nc2oc(-c3ccccc3)c(-c3ccccc3)c2C#N)cc(OC)c1OC	-20.9
C#CCOCCOCCOCCNc1nc(N2CCN(C(=O)CCCCCCCCCCNC(=O)[C@@H](CCSC)n3cc(CCO)nn3)CC2)nc(N2CCN(C(=O)CCCCCCCCCCNC(=O)[C@H]([C@@H](C)CC)n3cc(CCCCN=C(N)N)nn3)CC2)n1	4.27
Cc1cc(=O)oc2ccc(OCC(=O)N(Cc3ccc(F)cc3)Cc3ccco3)cc12	-58.8
O=c1c([N+](=O)[O-])c(N2CCCCC2)c2ccccc2n1-c1ccccc1	11.7
COc1cccc(C(=O)Nc2cccc(-c3nc4ncccc4o3)c2C)c1	-8.6
CCOC(=O)c1[nH]c2cc3c(cc2c1CCCN1C(=O)c2ccccc2C1=O)OCCO3	-8.32
